Laboratory results reported in the supplement of paper PMC4604168 (melanoma cell lines).
The list shows a part of the results. Many values rest on one well or one pass, so single values are uncertain.

These compounds were tested on 501Mel (assay: cell count relative to DMSO control; melanoma cells; higher = more viable cells). Conditions: library dose: low library concentration; 72 h.
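Note: cell number obtained by counting DAPI-stained nuclei in high-throughput microscope images with image analysis software, screen run in 1,536-well plates.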

SMILES | cell count [%]
Cc1cc(Nc2cc(N3CCN(C)CC3)nc(Sc3ccc(NC(=O)C4CC4)cc3)n2)n[nH]1 [Tozasertib] + N.N.[Cl][Pt][Cl] [cisplatin] (first compound 0.006 µM, partner dose 1.6 µM) | 95.5
COc1cc2ncnc(Nc3ccc(Oc4ccccc4)cc3)c2cc1OC + C/C(O)=C(\C#N)C(=O)Nc1cc(Br)ccc1Br [LFM-A13] (first compound 2 µM, partner dose 2 µM) | 111
O=C(O)C(=O)Nc1sc2c(c1C(=O)O)CCNC2 + O=C(Oc1ccc([N+](=O)[O-])cc1)N1CCC(C(O)(c2ccc3c(c2)OCO3)c2ccc3c(c2)OCO3)CC1 [JZL184] (first compound 1.66667 µM, partner dose 1 µM) | 98.6
CC(C)C[C@H](NC(=O)[C@H](Cc1ccccc1)NC(=O)c1cnccn1)B(O)O [Bortezomib] + N.N.[Cl][Pt][Cl] [cisplatin] (first compound 0.001 µM, partner dose 1.6 µM) | 1.18
CC(C)C[C@H](NC(=O)[C@H](Cc1ccccc1)NC(=O)c1cnccn1)B(O)O [Bortezomib] + C[As](C)SC[C@H](NC(=O)CC[C@H](N)C(=O)O)C(=O)NCC(=O)O [Darinaparsin] (first compound 0.001 µM, partner dose 0.4 µM) | 5.25
Cc1nc(Nc2ncc(C(=O)Nc3c(C)cccc3Cl)s2)cc(N2CCN(CCO)CC2)n1 [dasatanib] + C/C(O)=C(\C#N)C(=O)Nc1cc(Br)ccc1Br [LFM-A13] (first compound 0.004 µM, partner dose 2 µM) | 110
